# Experimental data: paper PMC10668032
# The list shows a part of the results. At the low end of the ranking, values are background and their order means little.
# Target: SIX1 homeodomain (reference allele) (UniProt Q15475)
# Test: universal protein binding microarray
# Conditions: Universal all-10-mer PBM (8x60K, AMADID 030236), 300 nM GST-tagged protein, Alexa Fluor 488 anti-GST; buffer, salt, pH and temperature not stated; high values mean tight binding; most listed sequences are background and not binding sites; double strand, one strand shown
row,Sequence,binding signal [E-score]
1,GATAAAAA,0.0457
2,GAACCTCC,-0.181
3,TACCGGCA,0.107
4,CCACGCTA,-0.116
5,CGTTTCTA,-0.176
6,GGGCGTAC,0.0111
7,CAAACGGA,0.0186
8,AATGTGAC,-0.161
9,CGGGAGTA,0.168
10,TGACATAA,-0.223
11,ATCTGCAG,0.115
12,GAGGTCCA,-0.381
13,CTCATTAA,-0.193
14,ATGCTTAC,-0.122
15,ACGAAGAC,-0.0839
16,AATATGCT,0.0268
17,ATGAGGGA,0.0535
18,CGCGAAAA,-0.0913
19,CTCATTTA,0.0702
20,CAACGTTA,-0.155
21,ACGTCTTG,-0.0644
22,ACCCGTAG,0.156
23,ATAAGTAT,0.235
24,CCGCAGCG,-0.232
25,CTATTGAC,0.0408

row,Sequence,binding signal [E-score]
1,CTATTAGA,0.00514
2,CGGTGTTC,0.288
3,CCGCGGCA,-0.12
4,ACTACGCG,-0.0274
5,CCAGAGGG,-0.0315
6,AGACCTCC,-0.0347
7,CAGCTCCG,-0.0916
8,CCGGTGTA,0.332
9,CCGCCAGG,-0.132
10,AGGGCATG,-0.0393
11,CGACCTTC,-0.266
12,CGGATTAC,0.299
13,CCGAGTAG,0.116
14,CTTAGTGA,-0.0285
15,CAAAGCGG,-0.189
16,TGGAATAA,-0.12
17,CCCTCCCG,0.0771
18,ACTTAACT,-0.111
19,ACTTACGC,-0.065
20,GTTAATAA,-0.047
21,CTGTATGC,-0.238
22,AGTGAGTC,-0.154
23,ACGGCATA,0.0123
24,AAGCCATA,-0.0859
25,CAGGACAA,-0.109

row,Sequence,binding signal [E-score]
1,CTAACGGA,-0.0614
2,CACTTCGA,-0.149
3,CTTCAGCA,-0.358
4,ACCAAACC,-0.0343
5,CTCTTATC,0.0649
6,AACTACCG,-0.169
7,CGGTTGTA,-0.102
8,AGCCGAAA,-0.164
9,AGACCTCT,-0.081
10,ATAGGAAA,0.0622
11,GAATCAGA,-0.0145
12,GCGTAACA,-0.0581
13,ACTTTGTA,-0.104
14,GCGTCTCA,0.209
15,CAAAACTA,-0.0568
16,GCATTTGA,-0.0383
17,CCGAATAG,0.0699
18,AAGATCAT,0.273
19,CACGTTGC,-0.255
20,CTGCTATC,0.292
21,CTTCTCAC,0.307
22,AAAATTGA,-0.208
23,CCGATCCA,0.29
24,CCAATAAC,0.0326
25,ACACTGTA,0.123

row,Sequence,binding signal [E-score]
1,CTCTCTCA,-0.0574
2,GTCATAAA,-0.0997
3,AATTGCCC,0.0725
4,AACCAGTA,0.0066
5,CTCTGGAA,-0.161
6,AGCTGGCG,-0.252
7,GCAACTAA,-0.0314
8,ACAATGTC,-0.0373
9,ATGAATTC,-0.00523
10,GGACTACC,-0.0239
11,AGAATAAC,-0.191
12,GAGTAGGA,0.112
13,CAGAGTAA,-0.165
14,ATGCTAGA,-0.0205
15,CATGTTAA,-0.146
16,CGTATCCC,0.389
17,ATGTCCGC,-0.169
18,AAGGGCAG,-0.12
19,CAGTTGAA,-0.146
20,GCTCGTCA,-0.169
21,ACCGGAAG,-0.126
22,ACGTTACG,-0.216
23,CCAGATGC,0.00855
24,GGCCTGCA,-0.224
25,ACGAAGTG,-0.178

row,Sequence,binding signal [E-score]
1,GCGCGTGA,-0.00937
2,CAGATGGG,0.042
3,ACCCCGAT,0.356
4,ATGGGCTA,0.00035
5,TCATATCA,0.418
6,AAATCATT,-0.287
7,ATATCCTG,0.394
8,AGAGCTAA,-0.252
9,AGGACATC,-0.126
10,CTCCTTAC,-0.0593
11,GGGGACAC,0.161
12,CCTGGGCA,-0.036
13,ACCAGCGG,0.088
14,ATGGCTCA,0.133
15,TGGCGTAA,-0.0831
16,GCTAGGAC,-0.236
17,AGACGAAT,0.0567
18,TAATCCCA,0.144
19,GAGGCGCA,-0.0493
20,GCGTGTTA,-0.0776
21,CGTAGGTA,0.08
22,AAACTCGC,-0.216
23,ATCATCGC,0.326
24,AACGAGTC,-0.243
25,GATAGGCC,0.209

row,Sequence,binding signal [E-score]
1,ACCGTGAT,0.294
2,GATCTCCC,0.361
3,CCTGGCGC,-0.214
4,AGCAATAA,-0.0578
5,ACTCAATC,-0.105
6,ATGTTTGA,0.0193
7,TAAGTGTA,0.0749
8,CCAGCAGA,0.0196
9,CACAGAGA,0.039
10,CAATATTA,0.0544
11,AATACTGG,0.109
12,AGCAGAAA,-0.0824
13,CTGCAACA,-0.156
14,GGTAAACC,-0.0374
15,AGGCGCAA,-0.153
16,AAGCGAGT,-0.0842
17,CGAGACGA,0.156
18,ATCACTAC,0.287
19,CGGCTCAG,0.103
20,GAATAACA,-0.0415
21,CCGGTGGC,-0.0242
22,AACAACCG,-0.0807
23,ACGAACCG,0.116
24,ACGGTGTC,0.437
25,GTAAGGGA,0.0722

row,Sequence,binding signal [E-score]
1,CAGTACAC,0.124
2,AGTGCGAA,-0.27
3,GATCTCGA,0.221
4,ATCGGCTA,0.173
5,ACCAAAGC,-0.157
6,ATACGACA,0.245
7,CCTGTTTA,-0.224
8,ACAATCGA,-0.196
9,CTTCATAA,-0.0638
10,AAGCAACT,-0.249
11,TATTTTAA,-0.0664
12,AAAGGGGT,-0.109
13,ACTGAGAA,-0.0128
14,GGCCTTCA,-0.268
15,ACTCTGTA,-0.0402
16,ATCTCAAA,0.144
17,CCGAAACG,-0.043
18,GGTTGTCA,-0.153
19,AGGGCTAC,-0.102
20,AATCTTGG,-0.206
21,AGGCTTTA,-0.148
22,ATTATAGA,0.1
